{"source": "PubChem BioAssay (NCATS)", "key": {"[1]": {"target": "Cytochrome P450 2C9 (Homo sapiens) (UniProt P11712)", "sequence (P11712 whole entry, looked up)": "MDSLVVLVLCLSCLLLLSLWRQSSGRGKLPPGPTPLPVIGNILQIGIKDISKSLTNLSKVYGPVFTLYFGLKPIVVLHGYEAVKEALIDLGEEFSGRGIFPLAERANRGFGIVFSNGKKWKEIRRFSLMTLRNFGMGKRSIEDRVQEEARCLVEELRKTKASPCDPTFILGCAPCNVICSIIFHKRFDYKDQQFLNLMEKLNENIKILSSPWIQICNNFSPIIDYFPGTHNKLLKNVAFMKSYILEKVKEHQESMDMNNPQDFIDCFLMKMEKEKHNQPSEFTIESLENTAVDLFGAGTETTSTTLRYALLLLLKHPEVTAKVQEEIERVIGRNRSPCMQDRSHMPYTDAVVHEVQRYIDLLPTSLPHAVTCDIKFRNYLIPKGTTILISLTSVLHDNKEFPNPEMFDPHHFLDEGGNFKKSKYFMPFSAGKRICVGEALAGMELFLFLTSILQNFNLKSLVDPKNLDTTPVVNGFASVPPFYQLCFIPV", "assay": "qHTS Assay for Inhibitors and Substrates of Cytochrome P450 2C9 (AID 883); further: nearly all actives have a fitted effect of over 60% in size; further: potency means the concentration at half of the fitted maximal effect; on activity change, negative = inhibition: on the % scale 0 is the no-effect control and ±100 the full control effect", "conditions": "recombinant CYP2C9, luciferin-H luminescence, 60 min; activity change, negative = inhibition: at 11.4 µM (top of the series) unless noted", "in_short": "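Human CYP2C9 (10nM) hydroxylated Luciferin-H (100uM, at its KM) to luciferin in 25mM KPO4. Compound was preincubated 10 min at 37C, then NADPH regeneration started a 60 min reaction at 37C. Luminescence was read after detection reagent, normalized to 57uM sulphaphenazole.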"}, "[2]": {"target": "Cytochrome P450 3A4 (Homo sapiens) (UniProt P08684)", "sequence (P08684 whole entry, looked up)": "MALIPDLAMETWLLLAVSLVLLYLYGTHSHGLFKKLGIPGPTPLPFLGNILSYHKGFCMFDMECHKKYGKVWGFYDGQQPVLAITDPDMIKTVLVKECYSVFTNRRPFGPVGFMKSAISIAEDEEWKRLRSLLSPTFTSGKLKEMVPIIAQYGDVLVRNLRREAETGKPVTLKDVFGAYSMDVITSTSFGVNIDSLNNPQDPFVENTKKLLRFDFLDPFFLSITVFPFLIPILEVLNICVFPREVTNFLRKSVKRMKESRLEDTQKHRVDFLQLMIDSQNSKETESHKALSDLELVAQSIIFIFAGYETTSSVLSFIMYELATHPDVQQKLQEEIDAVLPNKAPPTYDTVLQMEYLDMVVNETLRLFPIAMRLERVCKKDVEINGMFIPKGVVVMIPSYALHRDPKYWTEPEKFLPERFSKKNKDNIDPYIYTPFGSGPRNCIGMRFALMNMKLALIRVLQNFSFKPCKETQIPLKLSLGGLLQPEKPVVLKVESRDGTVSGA", "assay": "qHTS Assay for Inhibitors and Substrates of Cytochrome P450 3A4 (AID 884); further: nearly all actives have a fitted effect of over 50% in size; further: potency means the concentration at half of the fitted maximal effect; on activity change, negative = inhibition: on the % scale 0 is the no-effect control and ±100 the full control effect", "conditions": "recombinant CYP3A4, Luciferin-PPXE luminescence; activity change, negative = inhibition: at 57.1 µM (top of the series) unless noted", "in_short": "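Luminescent readout of luciferin produced by CYP3A4 (20 nM) dealkylation of Luciferin-PPXE, 25 uM (its KM). NADPH-driven reaction ran 60 min at RT after 10 min compound preincubation; data scaled to 57 uM ketoconazole as 100% inhibition.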"}, "[3]": {"assay": "qHTS Assay for Identification of Small Molecule Agonists for Hypoxia Response Element Signaling Pathway (AID 914; active means well fitted activation curve with a large enough effect in the signal ratio, with a control signal flat, not every such curve was filed as active; inconclusive means small, poorly fitted or top-dose-only effect, or effect the other way, or a change in a side signal; the % refers to the signal ratio; further: top concentration of the series differs between compounds; % of control where 0% means no effect)", "conditions": "ME-180 HRE-bla reporter, beta-lactamase ratio, CoCl2, 17 h; activation: stronger effect = higher value", "in_short": "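qHTS titration; ME-180 HRE-bla cells; EC50 CoCl2 co-treatment, 17 h at 37 degrees Celsius; CCF4 dye, ex 405nm, em 460nm and 530nm; %Activity from ratio; AC50.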"}, "[4]": {"target": "Cytochrome P450 2D6 (Homo sapiens) (UniProt P10635)", "sequence (P10635 whole entry, looked up)": "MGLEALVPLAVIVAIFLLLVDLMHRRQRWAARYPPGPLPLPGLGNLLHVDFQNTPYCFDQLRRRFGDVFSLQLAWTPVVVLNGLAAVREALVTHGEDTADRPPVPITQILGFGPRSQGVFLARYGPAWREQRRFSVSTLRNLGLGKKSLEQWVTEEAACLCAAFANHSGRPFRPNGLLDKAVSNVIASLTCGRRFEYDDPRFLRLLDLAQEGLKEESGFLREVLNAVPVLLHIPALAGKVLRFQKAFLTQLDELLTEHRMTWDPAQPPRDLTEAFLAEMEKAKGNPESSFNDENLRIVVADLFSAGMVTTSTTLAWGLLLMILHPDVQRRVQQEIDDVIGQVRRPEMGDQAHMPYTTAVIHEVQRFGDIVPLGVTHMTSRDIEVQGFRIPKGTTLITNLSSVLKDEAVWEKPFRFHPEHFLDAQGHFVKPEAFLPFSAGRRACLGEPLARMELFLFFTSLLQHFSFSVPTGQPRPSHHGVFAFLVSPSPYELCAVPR", "assay": "qHTS Assay for Inhibitors and Substrates of Cytochrome P450 2D6 (AID 891); further: nearly all actives have a fitted effect of over 60% in size;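 on Potency: luciferin methyl ether substrate demethylated by CYP2D6 with NADPH regeneration; potency means the concentration at half of the fitted maximal effect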;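 on activity change, negative = inhibition: luciferin methyl ether substrate demethylated by CYP2D6 with NADPH regeneration; top concentration of the series differs between compounds; on the % scale 0 is the no-effect control and ±100 the full control effect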", "in_short": "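Luminescent read-out of luciferin formed by 5 nM human CYP2D6 demethylating 30 uM Luciferin-ME EGE (Km level) over 60 min at room temperature after NADPH regeneration addition. Data normalized to full inhibition by 1.43 uM quinidine.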"}, "[5]": {"target": "Cytochrome P450 2C19 (Homo sapiens) (UniProt P33261)", "sequence (P33261 whole entry, looked up)": "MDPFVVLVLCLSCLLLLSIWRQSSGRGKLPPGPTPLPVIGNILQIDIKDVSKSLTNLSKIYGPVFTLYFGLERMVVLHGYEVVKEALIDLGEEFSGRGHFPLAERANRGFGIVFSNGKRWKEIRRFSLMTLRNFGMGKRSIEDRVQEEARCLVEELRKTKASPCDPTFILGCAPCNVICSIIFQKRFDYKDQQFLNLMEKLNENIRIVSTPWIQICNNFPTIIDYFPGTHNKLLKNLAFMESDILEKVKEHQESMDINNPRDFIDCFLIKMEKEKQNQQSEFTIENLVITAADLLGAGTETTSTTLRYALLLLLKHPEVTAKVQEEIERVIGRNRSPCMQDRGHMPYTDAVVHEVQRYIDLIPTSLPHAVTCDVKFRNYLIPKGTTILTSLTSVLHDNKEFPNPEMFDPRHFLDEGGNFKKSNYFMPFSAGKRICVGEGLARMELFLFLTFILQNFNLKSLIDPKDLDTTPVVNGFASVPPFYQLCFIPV", "assay": "qHTS Assay for Inhibitors and Substrates of Cytochrome P450 2C19 (AID 899); further: nearly all actives have a fitted effect of over 60% in size; further: potency means the concentration at half of the fitted maximal effect; on activity, negative = inhibition: top concentration of the series differs between compounds; on the % scale 0 is the no-effect control and ±100 the full control effect", "conditions": "recombinant CYP2C19, luciferin-H EGE luminescence; activity, negative = inhibition: at 11.4 µM (top of the series)", "in_short": "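Human CYP2C19 (5nM) with Luciferin-H EGE at 10uM (its KM) in 50mM KPO4 was preincubated with compound for 10 min at 37C. NADPH regeneration started a 60 min 37C reaction. Luciferin was read by luminescence, normalized to 57uM ketoconazole.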"}}, "note": "“And” between values parts separate entries of the source, which are not always exact repeats. Equal entries are not always repeated. The inconclusive results got no clear call from the source; some entries with a clear call stand among them for comparison. For part of these data: Potencies beside an inconclusive call are fits to weak or partial responses and may not hold up. The source made the active and inactive calls. Unless noted, the call rests on the fitted dose curve; in most records, active means well fitted inhibition curve with a large enough effect; inconclusive means small, poorly fitted or top-dose-only effect; inactive means no such curve, though single readings can be large or run the other way. Tags describe the fitted curve by direction and shape.", "data": [{"molecule": "COC(=O)[C@@H]1CC[C@H](C)[C@@H](c2ccc(C)cc2)N1C(=O)c1ccc(/C=N\\O[C@@H](C)c2cn([C@H]3COC[C@H]3O)nn2)cc1", "values": [{"measurement": "Potency", "setting": "[1]", "result": "inconclusive: 3.16 µM [inhibitor, single point]"}, {"measurement": "Potency", "setting": "[2]", "result": "inconclusive: 3.16 µM [inhibitor, partial curve]"}, {"measurement": "activation", "setting": "[3]", "result": "inconclusive: -12%"}]}, {"molecule": "CCCCC#CC1C=CC(OC(C)=O)C(COC(C)=O)O1", "note": "(configuration not stated)", "values": [{"measurement": "Potency", "setting": "[1]", "result": "inactive"}, {"measurement": "Potency", "setting": "[4]", "result": "inactive"}]}, {"molecule": "N#C[C@H](c1ccccc1)N1CCCN([C@@H](C#N)c2ccccc2)C1c1ccccc1O", "note": "(some centres not stated)", "values": [{"measurement": "Potency", "setting": "[1]", "result": "active: 3.16 µM"}, {"measurement": "Potency", "setting": "[4]", "result": "inconclusive: 5.01 µM [inhibitor, partial curve]"}]}, {"molecule": "CCC(=O)CC(NC(=O)OC)c1ccc(F)cc1", "note": "(configuration not stated)", "values": [{"measurement": "Potency", "setting": "[1]", "result": "inactive"}, {"measurement": "Potency", "setting": "[4]", "result": "inactive"}]}, {"molecule": "CC(C)[C@@H]1O[C@H](/C=C\\c2ccccc2)OCC1(C)C", "values": [{"measurement": "Potency", "setting": "[1]", "result": "inconclusive: 3.16 µM [inhibitor, partial curve]"}, {"measurement": "Potency", "setting": "[2]", "result": "inconclusive: 5.01 µM [inhibitor, partial curve]"}, {"measurement": "Potency", "setting": "[5]", "result": "inconclusive: 5.01 µM [inhibitor, partial curve]"}]}, {"molecule": "COc1ccc(O[C@H]2C=C[C@@H](c3ccccc3)O[C@@H]2CO/N=C(\\C)CCN2CCCCc3nc(C)c(C)cc32)cc1", "values": [{"measurement": "Potency", "setting": "[1]", "result": "inconclusive: 6.31 µM [inhibitor, single point]"}, {"measurement": "Potency", "setting": "[4]", "result": "inconclusive: 3.98 µM [inhibitor, partial curve]"}, {"measurement": "Potency", "setting": "[5]", "result": "active: 2.51 µM"}]}, {"molecule": "O=[N+]([O-])c1ccc(Nc2nc3ccccc3s2)cc1", "values": [{"measurement": "Potency", "setting": "[1]", "result": "active: 1.26 µM"}, {"measurement": "Potency", "setting": "[2]", "result": "inconclusive: 5.01 µM [inhibitor, partial curve]"}, {"measurement": "Potency", "setting": "[4]", "result": "inconclusive: 3.16 µM [inhibitor, single point]"}]}, {"molecule": "COC(=O)C/C=C\\[C@@H](C)[C@@H](/C=N\\O[C@@H](C)c1cn([C@H](CO)Cc2ccccc2)nn1)NS(=O)(=O)c1ccc(C)cc1", "values": [{"measurement": "Potency", "setting": "[1]", "result": "inconclusive: 3.16 µM [inhibitor, single point]"}, {"measurement": "Potency", "setting": "[4]", "result": "inconclusive: 6.31 µM [inhibitor, single point]"}]}, {"molecule": "COc1ccc(O[C@H]2C=C[C@@H](c3ccccc3)O[C@H]2CO/N=C2/[C@H]3O[C@@H]3[C@@H](O)[C@H]3[C@H]2CCn2c(=O)n(-c4ccccc4)c(=O)n23)cc1", "values": [{"measurement": "Potency", "setting": "[1]", "result": "inconclusive: 2 µM [inhibitor, partial curve, poor fit]"}, {"measurement": "Potency", "setting": "[4]", "result": "inconclusive: 3.98 µM [inhibitor, single point]"}]}, {"molecule": "CC(C)CO[C@H](c1ccc2c(c1)OCO2)[C@H](C)Br", "values": [{"measurement": "Potency", "setting": "[1]", "result": "active: 2 µM"}, {"measurement": "Potency", "setting": "[2]", "result": "active: 3.16 µM"}, {"measurement": "Potency", "setting": "[4]", "result": "inconclusive: 3.16 µM [inhibitor, partial curve]"}]}, {"molecule": "O=S(c1ccccc1)c1ccc2nnnn2n1", "note": "(configuration not stated)", "values": [{"measurement": "outcome", "setting": "[1]", "result": "inactive"}, {"measurement": "outcome", "setting": "[4]", "result": "inactive"}]}, {"molecule": "CCCNC(=O)OC[C@@H]1O[C@H](CCO/N=C2\\c3cc(OC)ccc3O[C@H](c3cccc(OC)c3)[C@H]2O)C=C[C@@H]1Oc1ccc(OC)cc1", "values": [{"measurement": "Potency", "setting": "[1]", "result": "inconclusive: 6.31 µM [inhibitor, single point]"}, {"measurement": "Potency", "setting": "[2]", "result": "active: 5.01 µM"}, {"measurement": "activation", "setting": "[3]", "result": "inconclusive: -9.25%"}]}, {"molecule": "C/C(CCN1CCCc2nc(C)c(C)cc21)=N\\O[C@@H](C)c1cn([C@H](CO)Cc2ccccc2)nn1", "values": [{"measurement": "Potency", "setting": "[1]", "result": "inconclusive: 3.98 µM [inhibitor, partial curve]"}, {"measurement": "Potency", "setting": "[4]", "result": "inconclusive: 3.98 µM [inhibitor, single point]"}]}, {"molecule": "COC(=O)C/C=C\\[C@@H](C)[C@@H](/C=N\\OC[C@@H](C)[C@H](OCc1ccccc1)C(C)C)OC", "values": [{"measurement": "Potency", "setting": "[1]", "result": "inconclusive: 3.16 µM [inhibitor, single point]"}, {"measurement": "Potency", "setting": "[2]", "result": "inconclusive: 3.16 µM [inhibitor, partial curve]"}, {"measurement": "activation", "setting": "[3]", "result": "inconclusive: -4.29%"}]}, {"molecule": "CC(C)C(=O)NC(=O)C1CCCN1C(=O)/C=C/c1ccccc1", "note": "(configuration not stated)", "values": [{"measurement": "Potency", "setting": "[1]", "result": "inactive"}, {"measurement": "activity change, negative = inhibition", "setting": "[2]", "result": "inactive: -10.1% [at 11.4 µM]"}, {"measurement": "Potency", "setting": "[5]", "result": "inactive"}]}, {"molecule": "CC(=O)OC[C@@H]1O[C@@H](O/N=C2/C[C@@H](O)[C@@H](O)[C@@H]3[C@@H]4C(=O)N(C5CCCCC5)C(=O)[C@H]4CC[C@@H]23)[C@H](OC(C)=O)[C@H](OC(C)=O)[C@@H]1OC(C)=O", "values": [{"measurement": "Potency", "setting": "[1]", "result": "inactive"}, {"measurement": "Potency", "setting": "[4]", "result": "inconclusive: 3.16 µM [inhibitor, partial curve]"}]}, {"molecule": "COC(=O)[C@@H]1CC[C@H](C)[C@@H](c2ccc(C)cc2)N1C(=O)c1ccc(/C=N\\O[C@@H](C)c2cn([C@H](CO)Cc3ccccc3)nn2)cc1", "values": [{"measurement": "Potency", "setting": "[1]", "result": "active: 3.16 µM and active: 2.51 µM"}, {"measurement": "Potency", "setting": "[5]", "result": "inconclusive: 0.0501 µM [inhibitor, full curve, poor fit]"}]}]}
